Source: US20190367516A1 (Bayer Pharma Aktiengesellschaft, priority 2015, published 2019)

Target: T1, human M2 receptor (Homo sapiens, UniProt P08172)
T1 sequence (P08172 1-466): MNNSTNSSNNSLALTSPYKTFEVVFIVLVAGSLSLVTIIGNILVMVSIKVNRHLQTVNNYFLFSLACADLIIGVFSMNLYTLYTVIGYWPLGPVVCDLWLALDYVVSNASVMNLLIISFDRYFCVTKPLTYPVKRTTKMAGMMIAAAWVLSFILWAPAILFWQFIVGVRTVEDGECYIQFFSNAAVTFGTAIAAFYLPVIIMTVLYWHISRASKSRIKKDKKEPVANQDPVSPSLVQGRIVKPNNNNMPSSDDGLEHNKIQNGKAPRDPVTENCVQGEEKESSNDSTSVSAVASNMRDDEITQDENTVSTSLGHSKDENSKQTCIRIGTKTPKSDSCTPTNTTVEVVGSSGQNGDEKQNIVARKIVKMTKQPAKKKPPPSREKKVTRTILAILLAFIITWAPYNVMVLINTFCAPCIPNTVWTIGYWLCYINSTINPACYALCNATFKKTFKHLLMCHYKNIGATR
Settings: boosting of the acetylcholine effect at an EC20 acetylcholine concentration; for Emax: read-out: Efficiency, M2-GIRK1/4 activation test

Emax [%]	Efficiency (M2-GIRK1/4 activation test) [%]	Structure (SMILES)
90.5		O=C(NC12CC3CC(CC(C3)C1)C2)c1cn(-c2ccc(F)cc2F)c2nc(N3CCOC[C@H]3CO)ccc2c1=O [Example 117, 1-(2,4-Difluorophenyl)-7-[(3R)-3-(hydroxymethyl)morpholin-4-yl]-4-oxo-N-(tricyclo[3.3.1.1^3,7]dec-1-yl)-1,4-dihydro-1,8-naphthyridine-3-carboxamide]
96.5		CC[C@@H](NC(=O)c1cn(-c2c(F)cc(F)cc2F)c2nc(N3CCC(O)C3=O)ccc2c1=O)C(F)(F)F (mixture of isomers) [Example 280, 7-[3-Hydroxy-2-oxopyrrolidin-1-yl]-4-oxo-N-[(2R)-1,1,1-trifluorobutan-2-yl]-1-(2,4,6-trifluorophenyl)-1,4-dihydro-1,8-naphthyridine-3-carboxamide]
100		CC(C)(C)[C@@H](NC(=O)c1cn(-c2c(F)cc(F)cc2F)c2nc(N3CCN(CCO)C3=O)ccc2c1=O)C(F)(F)F [Example 361, 7-[3-(2-Hydroxyethyl)-2-oxoimidazolidin-1-yl]-4-oxo-N-[(2R)-1,1,1-trifluoro-3,3-dimethylbutan-2-yl]-1-(2,4,6-trifluorophenyl)-1,4-dihydro-1,8-naphthyridine-3-carboxamide]
88.5		CCCC(NC(=O)c1cn(-c2ccc(F)cc2F)c2nc(NCC(F)F)ccc2c1=O)C(F)(F)F (stereo not shown) [Example 124, 7-[(2,2-Difluoroethyl)amino]-1-(2,4-difluorophenyl)-4-oxo-N-[1,1,1-trifluoropentan-2-yl]-1,4-dihydro-1,8-naphthyridine-3-carboxamide]
96.5		CC[C@@H](NC(=O)c1cn(-c2c(F)cccc2F)c2nc(N3CC(CO)OC3=O)ccc2c1=O)C(F)(F)F (mixture of isomers) [Example 260, rac-1-(2,6-Difluorophenyl)-7-[5-(hydroxymethyl)-2-oxo-1,3-oxazolidin-3-yl]-4-oxo-N-[(2R)-1,1,1-trifluorobutan-2-yl]-1,4-dihydro-1,8-naphthyridine-3-carboxamide]
	98.0	O=C(NC(c1c(F)cccc1F)C(F)(F)F)c1cn(-c2ccc(F)cc2F)c2nc(N3CC[C@H](F)C3)ccc2c1=O (single isomer, unassigned) [Example 243]
100		O=C(N[C@@H](C1CC1)C(F)(F)F)c1cn(-c2c(F)cccc2Cl)c2nc(N3C[C@@H](O)CC3=O)ccc2c1=O [Example 352, 1-(2-Chloro-6-fluorophenyl)-N-[(1S)-1-cyclopropyl-2,2,2-trifluoroethyl]-7-[(4S)-4-hydroxy-2-oxopyrrolidin-1-yl]-4-oxo-1,4-dihydro-1,8-naphthyridine-3-carboxamide]
93.5		CCC(NC(=O)c1cn(-c2ccc(F)cc2F)c2nc(N3CCC(O)C3)ccc2c1=O)C(F)(F)F (stereo in doubt) [Example 218, 1-(2,4-Difluorophenyl)-7-[3-hydroxypyrrolidin-1-yl]-4-oxo-N-[(2S)-1,1,1-trifluorobutan-2-yl]-1,4-dihydro-1,8-naphthyridine-3-carboxamide]
88.3		CC(NC(=O)c1cn(-c2ccc(F)cc2F)c2nc(NCC(F)F)ccc2c1=O)C(F)(F)F (racemic) [Example 121, rac-7-[(2,2-Difluoroethyl)amino]-1-(2,4-difluorophenyl)-4-oxo-N-[1,1,1-trifluoropropan-2-yl]-1,4-dihydro-1,8-naphthyridine-3-carboxamide]
99.8		COC(=O)N1CCN(c2ccc3c(=O)c(C(=O)NC45CC6CC(CC(C6)C4)C5)cn(-c4ccc(F)cc4F)c3n2)CC1 [Example 4, Methyl 4-[8-(2,4-difluorophenyl)-5-oxo-6-(tricyclo[3.3.1.1^3,7]dec-1-ylcarbamoyl)-5,8-dihydro-1,8-naphthyridin-2-yl]piperazine-1-carboxylate]
94		O=C(NC(c1ccccc1Cl)C(F)(F)F)c1cn(-c2ccc(F)cc2F)c2nc(N3CC[C@H](O)C3=O)ccc2c1=O (stereo partly drawn) [Example 298, N-[1-(2-Chlorophenyl)-2,2,2-trifluoroethyl]-1-(2,4-difluorophenyl)-7-[(3S)-3-hydroxy-2-oxopyrrolidin-1-yl]-4-oxo-1,4-dihydro-1,8-naphthyridine-3-carboxamide]
98.5		CCC(NC(=O)c1cn(-c2ccc(F)cc2F)c2nc(NCCF)ccc2c1=O)C(F)(F)F (racemic) [Example 85, rac-1-(2,4-Difluorophenyl)-7-[(2-fluoroethyl)amino]-4-oxo-N-[1,1,1-trifluorobutan-2-yl]-1,4-dihydro-1,8-naphthyridine-3-carboxamide]
95.8		O=C(NC(c1ccccc1Cl)C(F)(F)F)c1cn(-c2ccc(F)cc2F)c2nc(N3CCCC(O)C3=O)ccc2c1=O (racemic) [Example 206, rac-N-[(1R)-(2-Chlorophenyl)-2,2,2-trifluoroethyl]-1-(2,4-difluorophenyl)-7-[3-hydroxy-2-oxopiperidin-1-yl]-4-oxo-1,4-dihydro-1,8-naphthyridine-3-carboxamide]
98.3		C[C@H](NC(=O)c1cn(-c2ccc(F)cc2F)c2nc(N(C)C)ccc2c1=O)C(F)(F)F [Example 44, 1-(2,4-Difluorophenyl)-7-(dimethylamino)-4-oxo-N-[(2S)-1,1,1-trifluoropropan-2-yl]-1,4-dihydro-1,8-naphthyridine-3-carboxamide]
99.8		O=C(NC(c1cccc(Cl)c1)C(F)(F)F)c1cn(-c2ccc(F)cc2F)c2nc(N3C[C@@H](O)CC3=O)ccc2c1=O (mixture of isomers) [Example 274, N-[1-(3-Chlorophenyl)-2,2,2-trifluoroethyl]-1-(2,4-difluorophenyl)-7-[(4S)-4-hydroxy-2-oxopyrrolidin-1-yl]-4-oxo-1,4-dihydro-1,8-naphthyridine-3-carboxamide]
94.5		CN(C)c1ccc2c(=O)c(C(=O)NC34CCC(C)(CC3)CC4)cn(-c3ccc(F)cc3F)c2n1 [Example 42, 1-(2,4-Difluorophenyl)-7-(dimethylamino)-N-(4-methylbicyclo[2.2.2]oct-1-yl)-4-oxo-1,4-dihydro-1,8-naphthyridine-3-carboxamide]
93		O=C(NC12CC(F)(C1)C2)c1cn(-c2c(F)cc(F)cc2F)c2nc(N3C[C@@H](O)CC3=O)ccc2c1=O [Example 367, N-(3-Fluorobicyclo[1.1.1]pent-1-yl)-7-[(4S)-4-hydroxy-2-oxopyrrolidin-1-yl]-4-oxo-1-(2,4,6-trifluorophenyl)-1,4-dihydro-1,8-naphthyridine-3-carboxamide]
95.7		CC[C@H](NC(=O)c1cn(-c2ccc(F)cc2F)c2nc(N(C)CCF)ccc2c1=O)C(F)(F)F [Example 103, 1-(2,4-Difluorophenyl)-7-[(2-fluoroethyl)(methyl)amino]-4-oxo-N-[(2S)-1,1,1-trifluorobutan-2-yl]-1,4-dihydro-1,8-naphthyridine-3-carboxamide]
91.8		CC(COC(F)(F)F)NC(=O)c1cn(-c2ccc(F)cc2F)c2nc(N3CCCC3)ccc2c1=O (racemic) [Example 232, 1-(2,4-Difluorophenyl)-4-oxo-7-(pyrrolidin-1-yl)-N-[1-(trifluoromethoxy)propan-2-yl]-1,4-dihydro-1,8-naphthyridine-3-carboxamide]
98.5		CC(C)(NC(=O)c1cn(-c2ccc(F)cc2F)c2nc(N3CC[C@@H](OC(F)F)C3)ccc2c1=O)c1c(F)cccc1F [Example 188, 7-[(3R)-3-(Difluoromethoxy)pyrrolidin-1-yl]-1-(2,4-difluorophenyl)-N-[2-(2,6-difluorophenyl)propan-2-yl]-4-oxo-1,4-dihydro-1,8-naphthyridine-3-carboxamide]
99.8		CN(C)c1ccc2c(=O)c(C(=O)Nc3c(Cl)cccc3Cl)cn(-c3ccc(F)cc3F)c2n1 [Example 55, N-(2,6-Dichlorophenyl)-1-(2,4-difluorophenyl)-7-(dimethylamino)-4-oxo-1,4-dihydro-1,8-naphthyridine-3-carboxamide]
87		CC[C@H](NC(=O)c1cn(-c2ccc(F)cc2F)c2nc(N3CCC(F)(F)C3)ccc2c1=O)C(F)(F)F [Example 75, 1-(2,4-Difluorophenyl)-7-(3,3-difluoropyrrolidin-1-yl)-4-oxo-N-[(2S)-1,1,1-trifluorobutan-2-yl]-1,4-dihydro-1,8-naphthyridine-3-carboxamide]
96		CC[C@@H](NC(=O)c1cn(-c2ccc(F)cc2F)c2nc(N3CCC(C)(O)C3=O)ccc2c1=O)C(F)(F)F (mixture of isomers) [Example 194, 1-(2,4-Difluorophenyl)-7-[3-hydroxy-3-methyl-2-oxopyrrolidin-1-yl]-4-oxo-N-[(2R)-1,1,1-trifluorobutan-2-yl]-1,4-dihydro-1,8-naphthyridine-3-carboxamide]
100		CN(C)c1ccc2c(=O)c(C(=O)NC(C)(C)c3c(F)cccc3F)cn(-c3ccc(F)cc3F)c2n1 [Example 53, 1-(2,4-Difluorophenyl)-N-[2-(2,6-difluorophenyl)propan-2-yl]-7-(dimethylamino)-4-oxo-1,4-dihydro-1,8-naphthyridine-3-carboxamide]
94.5		C[C@H](NC(=O)c1cn(-c2c(F)cc(F)cc2Cl)c2nc(N3CCC(C)(C)C3=O)ccc2c1=O)C(F)(F)F [Example 335, 1-(2-Chloro-4,6-difluorophenyl)-7-(3,3-dimethyl-2-oxopyrrolidin-1-yl)-4-oxo-N-[(2S)-1,1,1-trifluoropropan-2-yl]-1,4-dihydro-1,8-naphthyridine-3-carboxamide]
